Measurements from the antibiotic and cytotoxicity screens of Wong et al. (2023).
The list shows a part of the results.

What follows are compounds tested on HSkMC (human skeletal muscle cells) (assay: cytotoxicity call (relative viability < 0.9)). Details: 10 µM.

| SMILES | cytotoxicity call |
| --- | --- |
| C[C@@H]1CN([C@@H](C)CO)C(=O)c2cc(C#CC3(O)CCCC3)cnc2O[C@H]1CN(C)C(=O)Nc1ccc2c(c1)OCO2 | inactive |
| C[C@H]1CN([C@@H](C)CO)C(=O)c2cc(-c3ccc(F)cc3)cnc2O[C@@H]1CN(C)C(=O)Cc1ccccn1 | inactive |
| COc1ccccc1CNC(=O)C[C@@H]1C[C@H]2c3cc(NC(=O)C4CCOCC4)ccc3O[C@H]2[C@H](CO)O1 | inactive |
| COc1ccc([C@@H]([C@H](Cc2ccccc2)OC(C)=O)N2C[C@H]3C(=NO[C@@H]3[C@@H](OC(C)=O)c3ccccc3)[C@@H]2Cc2ccccc2)cc1 | inactive |
| C[C@@H]1CN([C@@H](C)CO)C(=O)c2cc(NS(=O)(=O)c3ccc(F)cc3)ccc2O[C@@H](C)CCCCO[C@@H]1CN(C)S(=O)(=O)c1cn(C)cn1 | inactive |
| CC1=C(/C=C/C(C)=C/C=C/C(C)=C/C(=O)O)C(C)(C)CCC1 | inactive |
| Cc1ccc(S(=O)(=O)N(C)C[C@H]2Oc3c(NC(=O)c4cnccn4)cccc3C(=O)N([C@H](C)CO)C[C@@H]2C)cc1 | inactive |
| O=C1OCC=C[C@H]2O[C@@]34C=CCN(Cn5nnc6ccccc65)C(=O)[C@H]3N(CCO)C(=O)[C@@H]4[C@@H]12 | inactive |
| C[C@@H]1CN([C@H](C)CO)C(=O)Cc2cc(NS(C)(=O)=O)ccc2O[C@@H]1CN(C)C(=O)Nc1ccc2c(c1)OCO2 | inactive |
| C[C@H](CO)N1C[C@H](C)[C@@H](CN(C)Cc2ccc(-c3ccccc3)cc2)Oc2c(NS(=O)(=O)c3ccccc3)cccc2C1=O | inactive |

Each compound was assayed on HepG2 (assay: cytotoxicity call (relative viability < 0.9)). Details: 10 µM.

| SMILES | cytotoxicity call |
| --- | --- |
| C[C@H](CO)N1C[C@H](C)[C@H](CN(C)C(=O)Nc2ccc(C(F)(F)F)cc2)Oc2ccc(NC(=O)Cn3cnnn3)cc2C1=O | inactive |
| CNC(=O)C[C@H]1CC[C@H]2[C@@H](COC[C@H](O)CN2C(=O)Nc2ccc3c(c2)OCO3)O1 | inactive |
| COC(=O)c1c(CC[C@@H](CO)NC(=O)N[C@@H](C)Cn2cc(-c3ccccn3)nn2)oc(C(C)=O)c1C(=O)OC | inactive |
| C[C@@H]1CN([C@H](C)CO)C(=O)Cc2cc(NC(=O)CCN3CCOCC3)ccc2O[C@@H]1CN(C)S(=O)(=O)c1ccccc1 | inactive |
| C[C@@H]1CCCCO[C@@H](CN(C)Cc2ccncc2)[C@@H](C)CN([C@H](C)CO)C(=O)c2cc(NC(=O)c3ccccc3)ccc2O1 | inactive |
| C[C@@H]1CN([C@@H](C)CO)C(=O)Cc2cc(NS(C)(=O)=O)ccc2O[C@@H]1CN(C)S(=O)(=O)c1ccc(Cl)cc1 | inactive |
| C[C@H](CO)N1C[C@H](C)[C@@H](CN(C)CC2CC2)Oc2ccc(NC(=O)CCN3CCOCC3)cc2CC1=O | inactive |
| Cc1noc(C)c1S(=O)(=O)Nc1ccc2c(c1)CC(=O)N([C@@H](C)CO)C[C@H](C)[C@@H](CN(C)Cc1ccc3c(c1)OCO3)O2 | inactive |
| O=C(Nc1ccccc1)c1cc2c(c(-c3cccc(-c4ccncc4)c3)n1)[C@@H](CCO)N(CC1CCOCC1)C2 | inactive |
| CC(=O)NC(CCC(N)=O)C(=O)O (centres undefined) | inactive |
| C[C@@H]1CN([C@@H](C)CO)C(=O)c2cc(NS(=O)(=O)c3cccs3)ccc2O[C@@H](C)CCCCO[C@H]1CN(C)C(=O)Nc1ccc(F)cc1 | inactive |
| C[C@@H]1CCCCO[C@H](CN(C)Cc2ccc(C(F)(F)F)cc2)[C@H](C)CN([C@H](C)CO)C(=O)c2cc(NS(=O)(=O)c3ccc(Cl)cc3)ccc2O1 | active |
| C[C@H]1CN([C@@H](C)CO)C(=O)c2cccc(NS(=O)(=O)c3ccccc3)c2O[C@H]1CN(C)Cc1ccncc1 | inactive |
| C[C@@H]1CN([C@@H](C)CO)C(=O)CCCn2nncc2CO[C@@H]1CN(C)C(=O)Nc1ccccc1C(F)(F)F | inactive |
| CC(=O)N[C@H]1C(=O)Nc2ccc(F)cc21 | inactive |
| C[C@@H]1CN([C@@H](C)CO)C(=O)c2cc(NC(=O)C3CCCCC3)ccc2O[C@@H]1CN(C)C(=O)Nc1cccc2ccccc12 | inactive |
| C[C@@H]1CN([C@@H](C)CO)C(=O)c2cc(NS(=O)(=O)c3ccccc3)ccc2O[C@H]1CN(C)S(C)(=O)=O | inactive |
| Cc1ccc(S(=O)(=O)N(C)C[C@H]2OCCCC[C@H](C)Oc3ccc(NC(=O)C4CCCCC4)cc3C(=O)N([C@H](C)CO)C[C@@H]2C)cc1 | inactive |
| C[C@H](CO)N1C[C@H](C)[C@@H](CN(C)C(=O)Nc2cccc3ccccc23)Oc2ccc(NC(=O)NC3CCCCC3)cc2CC1=O | inactive |
